# Source: PubChem BioAssay AID1240 (Sanford-Burnham Center for Chemical Genomics, 2008)
# About 800 (1.6%) of roughly 50,000 compounds showed an effect of 50% or more. Some of the results follow.
# Biological target: Bcl-2-like protein 10 (Homo sapiens) (UniProt Q9HD36)
# Assay: Phenotype converters, Bcl-B/TR3 peptide binding displacement, primary biochemical FP (AID 1240);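 further: 0% = Bcl-B with tracer peptide and DMSO and 100% = tracer peptide lacking Bcl-B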
# Settings: GST-Bcl-B / FITC-TR3 peptide fluorescence polarization; stronger effect = higher value; compound at 3.75 mg/L
# Chain of UniProt Q9HD36 (Q9HD36 whole entry, looked up): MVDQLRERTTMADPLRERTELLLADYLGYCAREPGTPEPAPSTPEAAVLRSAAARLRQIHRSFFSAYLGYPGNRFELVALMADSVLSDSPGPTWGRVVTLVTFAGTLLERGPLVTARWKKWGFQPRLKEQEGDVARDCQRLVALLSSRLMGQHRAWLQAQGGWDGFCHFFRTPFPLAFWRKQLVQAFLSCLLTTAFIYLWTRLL
row,SMILES,displacement [%]
1,O=C(c1ccc(C#Cc2ccccc2)cc1)N1CCN(c2ccccn2)CC1,-3.1
2,COc1cc(N2N=C(c3ccccc3)CC2c2ccccc2)c(C=O)cc1C=O (stereo not given),-1
3,Cc1ccc2cc(C3=C/C(=C/c4ccc([N+](=O)[O-])o4)C(=O)O3)ccc2c1,-3.6
4,O=C(O)CCCC(=O)Nc1ccccc1,14.1
5,COc1cc(/C(C)=N/N2CCN(c3ccccc3OC)CC2)ccc1O,16.4
6,CCOc1ccc(NC(=S)NC(=O)/C=C/c2ccc(OC)cc2)c([N+](=O)[O-])c1,13.2
7,O=C(Nc1ccccc1F)C1(c2ccccc2)CC1(Cl)Cl (stereo not given),-3.5
8,CCOC(=O)C1=C(N)OC(C)=C(C(=O)OC)C1c1cccnc1 (stereo not given),-10.9
9,COC(=O)c1ccc(NC(=O)c2cccc([N+](=O)[O-])c2C)cc1,-4.6
10,COc1cccc(N=C2c3ccc([N+](=O)[O-])cc3C(=O)C2C(C)=O)c1 (stereo not given),23.1
11,O=C1C2ON(c3ccc(Cl)cc3)C(c3ccc(F)cc3)C2C(=O)N1c1ccc([N+](=O)[O-])cc1 (stereo not given),-20.3
12,O=C(N/N=C/C=N/NC(=O)c1cc(Br)ccc1O)c1cc(Br)ccc1O,-0.5
13,COCC(=O)N/N=C/c1ccc(Sc2ccccn2)o1,-4.2
14,CSc1ccc(/C=N/n2c(C)nnc2C)cc1,-5.2
15,COc1cc(OC)cc(C(=O)NCC2CCCO2)c1 (stereo not given),-4.7
16,COc1ccccc1NC(=O)CN(c1ccccc1OC)S(=O)(=O)c1ccccc1,-8.5
17,Cc1occc1C(=O)Nc1ccccc1F,5.2
18,CCOC(=O)/C(=C/c1c[nH]c2ccccc12)C(C)=O,-9.1
19,Clc1cc(Cl)c2nc3[nH]c4ccc(Br)cc4c3nc2c1,8
20,CCC(C)NC(=O)CN(c1ccc(OC)cc1)S(=O)(=O)c1ccccc1 (stereo not given),6.9
21,CCOc1cccc(N2C(=O)CC(S/C(N)=N/N=C(\C)c3ccc(Cl)s3)C2=O)c1 (stereo not given),-22.7
22,CC(=O)Nc1ccccc1NS(=O)(=O)c1ccc(Cl)cc1,3.3
23,COCCCNC(=O)CN(c1cc(Cl)ccc1OC)S(=O)(=O)c1ccc(C)c([N+](=O)[O-])c1,1.6
24,CCOc1ccccc1NC(=O)c1c(NC(=O)c2ccccc2F)sc2c1CCC(C)C2 (stereo not given),-6.4
25,O=C1/C(=C\c2ccccc2)SC(=S)N1CN1CCCCC1,6.6
26,CC(=O)Nc1ccc(S(=O)(=O)NC(C)=O)cc1,9
27,COc1ccc(CCN(C(=S)Nc2ccccc2)C2CC(=O)N(c3ccc(Cl)cc3)C2=O)cc1 (stereo not given),-3.3
28,Cc1ccc(-n2c(SCC(=O)N3CCOCC3)nc(O)c(Cc3ccccc3)c2=O)cc1,3
29,Cc1ccsc1/C=C(\C#N)c1nc(-c2cccc(Br)c2)cs1,95.2
30,CCc1ccc(NC(=O)COc2cccc(C)c2C)cc1,-9.3
